Test results from PubChem BioAssay AID485344 (National Center for Advancing Translational Sciences (NCATS), 2010).
Out of some 340,000 compounds screened, about 6,900 (2%) were called active. Cut-off read from the data, not from the text of the source: active = inhibition above about 30%; inactive = below that, where a call was filed. Only a part is listed here, and it is no random draw. Where no call is shown, the source filed none.

target: D(2) dopamine receptor (Homo sapiens) (UniProt P14416); assay: HTS Assay for Allosteric Antagonists of the Human D2 Dopamine Receptor: Primary Screen for Antagonists; settings: HEK293 TREx D2 cells, calcium flux, dopamine EC80; at 10 µM; stronger effect = higher value; note: 0% is about no effect
In short: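 HEK293 T-REx D2 cells, tet-induced, calcium dye no-wash. Cpd pintool add, 180 s kinetic, then EC80 DA, 180 s kinetic. Ca flux read.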

UniProt P14416, sequence (P14416 whole entry, looked up): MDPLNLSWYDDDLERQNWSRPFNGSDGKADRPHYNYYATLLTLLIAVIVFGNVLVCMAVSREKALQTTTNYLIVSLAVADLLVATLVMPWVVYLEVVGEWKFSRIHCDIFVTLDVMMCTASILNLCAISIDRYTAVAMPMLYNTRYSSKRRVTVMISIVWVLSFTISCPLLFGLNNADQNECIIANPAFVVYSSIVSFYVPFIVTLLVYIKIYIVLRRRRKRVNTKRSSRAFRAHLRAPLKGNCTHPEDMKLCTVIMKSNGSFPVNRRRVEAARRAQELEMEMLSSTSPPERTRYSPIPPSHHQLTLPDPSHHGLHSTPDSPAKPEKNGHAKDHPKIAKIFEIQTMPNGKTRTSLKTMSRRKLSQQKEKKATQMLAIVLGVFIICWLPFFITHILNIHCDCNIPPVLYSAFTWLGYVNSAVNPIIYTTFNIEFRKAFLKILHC

| Compound | inhibition |
| --- | --- |
| CC1CCN(CCCCOc2cccc(Br)c2)CC1 | active: 91.8% |
| COc1cc2c(=O)c(C(=O)c3ccc(C)c(C)c3)cn(Cc3ccc(F)cc3)c2cc1OC | -25.7% |
| Cc1nc(SCC(=O)Nc2ccccc2C)cc(-c2ccccc2)n1 | -11% |
| Cc1ccccc1NC(=O)CSc1cn(CC(=O)N2CCCCCC2)c2ccccc12 | -18.3% |
| Cc1cccc(NC(=O)C2CCCN(C(=O)Nc3ccc(F)cc3)C2)c1C (stereo not drawn) | active: 36% |
| CCSc1nnc2c(n1)OC(c1cc(OC)c(OC)c(OC)c1)Nc1ccccc1-2 (stereo not drawn) | 3.92% |
| CCOc1cc(CNC(=O)Cn2c(=O)c3cccn3c3ccc(F)cc32)cc(OCC)c1OCC | 5.96% |
| CCOC(=O)c1c(C)[nH]c(C)c1S(=O)(=O)NCC(=O)Nc1ccc(C)c(N(C)C)c1 | 0.12% |
| COc1c(C)cc(Br)cc1C(=O)Nc1ccc(-c2nc3ncccc3o2)cc1 | 13.1% |
| CCOc1ccc(NC(=O)Cn2c(=O)n(-c3cccc(Cl)c3)c(=O)c3c2c2cc(C)ccc2n3C)cc1 | 20.4% |
| COc1ccc(S(=O)(=O)Nc2cccc(-c3ccc(N4CCC(C)CC4)nn3)c2)c(OC)c1 | 22.5% |
| COc1cc(NC(=O)c2ccc3oc(=O)c(S(=O)(=O)c4ccccc4)cc3c2)cc(OC)c1 | 24.8% |
| CCOc1cccc(C2c3[nH]c4ccccc4c3CCN2C(=O)CSc2ccccc2)c1 (stereo not drawn) | 8.3% |
| Cc1cccc(C(=O)N2CCc3cc(CNC(=O)COc4ccc(Cl)cc4)ccc32)c1 | 21.7% |
| Cc1cc(NC(=O)c2cc(-c3ccc(Cl)cc3)on2)n(-c2ccccc2)n1 | -20.4% |
| COC(=O)c1cc2oc3ccccc3c2n1CC(=O)Nc1ccc(C)c(F)c1 | -16.7% |
| COc1ccc(CNC(=O)Cc2ccc(NC(=O)N3CCSc4ncccc43)cc2)cc1OC | 2.75% |
| COc1ccc(-c2cc(C(=O)Nc3cccnc3)no2)cc1OC | -8.63% |
| Cc1cccc(NC(=O)c2cn(-c3ccccc3)nc2-c2ccccc2)c1 | active: 40.3% |
| Cc1ccc(-n2ncc3c(NCCO)ncnc32)cc1Cl | 7.11% |
| O=C(COC(=O)c1cc([N+](=O)[O-])ccc1N1CCOCC1)c1ccc(OC(F)F)cc1OC(F)F | active: 44% |
| Cc1nc(N2CCCC2)c2c(C(=O)N3CCN(c4cc(Cl)ccc4C)CC3)c(C)oc2n1 | -13.2% |
| Cc1ccc(C(=O)c2cn(Cc3ccccc3)c3nc(C)ccc3c2=O)cc1 | 5.78% |
| CCn1c(=O)c(=O)n(CC)c2cc(S(=O)(=O)Nc3ccc(C)cc3)ccc21 | -2.78% |

| Compound | inhibition |
| --- | --- |
| COc1ccc(/C=N/NC(=O)C[n+]2ccccc2)c(OC)c1OC | active: 35.1% |
| COC(=O)c1ccc(NC(=O)Cn2cnc3c2c(=O)n(C)c(=O)n3C)cc1 | -9.96% |
| O=C(Cn1c(=O)c2cccn2c2ccccc21)NCc1ccccc1F | 4.39% |
| CN1CCC(NC(=O)c2cccc(Oc3ccccc3)c2)CC1 | active: 69.8% |
| Cc1cccc(N(CC(=O)NCCSCc2ccccc2)S(=O)(=O)c2ccccc2)c1C | -10.8% |
| CCc1cccc(C)c1NC(=O)C1CCCN1S(=O)(=O)c1cccc2nsnc12 (stereo not drawn) | -2.07% |
| CCCCN(C)C(=O)c1ccc2c(c1)N(Cc1cccc(F)c1)C(=O)c1ccccc1S2 | -2.53% |
| CCOC(=O)c1scc(-c2ccc(C)cc2)c1S(=O)(=O)Nc1cc(OC)ccc1OC | 7.81% |
| O=C(CCCCCCN1C(=O)c2ccccc2C1=O)NC1CCCCC1 | active: 32.5% |
| Cc1cc(C)c(/C=C/c2onc(C)c2S(=O)(=O)N2CCC(C(=O)NCCc3ccccc3)CC2)c(C)c1 | 7.37% |
| Cc1ccc(OCCCn2c(-c3ccc(Cl)cc3)nc3ccccc3c2=O)c(C)c1 | 17.8% |
| O=C(NC(NC(=S)Nc1cccc(Cl)c1)C(Cl)(Cl)Cl)OCc1ccccc1 (stereo not drawn) | active: 77.9% |
| Cc1ccc(NC(=O)C2CCCN(S(=O)(=O)c3c(C)noc3C)C2)cc1 (stereo not drawn) | -13.7% |
| COc1ccc(NC(=O)c2oc3ccccc3c2NC(=O)C2CCCCC2)c(OC)c1 | 12.8% |
| Clc1ccc(-n2c(Cc3ccccc3)nnc2SCc2nc(-c3cccs3)no2)cc1 | -0.845% |
| Cc1ccc(S(=O)(=O)c2nc(-c3ccc(F)cc3)oc2N2CCN(c3ccccc3)CC2)cc1 | 2.38% |
| CCN(CC)c1ccc(C2Nc3ccccc3-c3cc(C)nn32)cc1 (stereo not drawn) | 16.2% |
| CC(=O)C1=C(O)C(=O)N(c2ccc(Br)cn2)C1c1ccccc1[N+](=O)[O-] (stereo not drawn) | active: 31.2% |
| COc1ccc(CNC(=O)c2cccn2-c2nnc(N3CCCC3)s2)c(OC)c1 | 1.03% |
| COc1ccc(C2(CNC(=O)C(=O)Nc3ccccc3C)CCCC2)cc1OC | 7.4% |
| CCOC(=O)c1ccc(Nc2nn3c(=O)c4ccccc4nc3s2)cc1 | -3.06% |
| COc1cc(OC)c(NC(=O)N2CCC(CN3CCCC3)CC2)cc1Cl | 5.37% |
| COc1ccc(OC)c(NC(=O)c2ccc3c(Cl)c4c(nc3c2)CCCC4)c1 | 3.95% |
| CCCCN(C)C(=O)Cn1cnc2sc(C)c(S(=O)(=O)N3CCC(C)CC3)c2c1=O | 5.23% |

| Compound | inhibition |
| --- | --- |
| Cc1ccc(CNc2ccc3cc(S(=O)(=O)N4CCCCC4)ccc3n2)cc1 | 8.44% |
| Cc1ccc(CNC(=O)c2ccc(CS(=O)(=O)Cc3ccc(C)cc3)o2)cc1 | -2.75% |
| Cc1nn(-c2ccccc2)c2c1N(CC(=O)N1CCN(c3ccccc3F)CC1)C(=O)CS2 | -2.68% |
| COc1ccccc1Nc1ncnc2scc(-c3ccc(F)cc3)c12 | -4.55% |
| CC1CN(S(=O)(=O)c2ccc(F)cc2)C(C)N1C(=O)N1CCOCC1 (stereo not drawn) | active: 32.1% |
| COc1ccc(OC)c(NC(=O)C(C)N2c3cccc4cccc(c34)S2(=O)=O)c1 (stereo not drawn) | active: 33.6% |
| COc1ccc(Nc2nn(-c3ccc(OC(F)(F)F)cc3)nc2C(C)=O)cc1 | -2.14% |
| COc1ccc(NC(=O)CC2Nc3ccccc3NC2=O)cc1 (stereo not drawn) | 2.24% |
| CC(=O)c1ccc(N2CCN(C(=O)c3cccc(Oc4ccccc4)c3)CC2)cc1 | active: 35.3% |
| Nc1nn(-c2ccccc2)nc1C(=O)OCc1c(F)cccc1Cl | -19.9% |
| Cc1ccc(N(Cc2cccs2)C(=O)c2ccco2)cc1 | 15.2% |
| O=C(Nc1ccc2nc3n(c(=O)c2c1)CCCCC3)c1cccc(C(F)(F)F)c1 | 9.07% |
| O=C(CCC1N=C2c3ccccc3N=C(SCC(=O)Nc3ccc(F)cc3)N2C1=O)NCc1ccco1 (stereo not drawn) | 0.449% |
| COc1cc(Nc2nc(SCC(=O)c3ccc(Cl)c(Cl)c3)nc3ccccc23)cc(OC)c1 | -15.1% |
| CC(C)N(C(=O)Cn1cc(S(=O)(=O)Cc2ccc(Cl)cc2)c2ccccc21)C(C)C | 18.1% |
| COc1ccc(-n2c(SCC(=O)NCc3ccccc3)nc3c([nH]c4ccccc43)c2=O)cc1 | -11.6% |
| COCCn1c(=O)[nH]c2cc(C(=O)NCc3ccccc3Cl)ccc2c1=O | 19.6% |
| CCOc1ccc(NC(=O)c2c(Nc3ccc(OC)cc3OC)sc(C(=O)c3ccc(Cl)cc3)c2N)cc1 | -1.9% |
| CCOc1ccc(NC(=O)CSc2nc(-c3ccc(OC)cc3)nc3c2Cc2c(CO)cnc(C)c2O3)cc1 | -17.2% |
| CCOC(=O)c1cccc(NC(=O)c2cc3sccc3n2Cc2ccc(Cl)cc2)c1 | -10.2% |
| CCOc1ccc(CCNC(=O)CCc2cn(Cc3ccccc3F)c3ccccc23)cc1OCC | 1.93% |
| CCOc1ccc(/C=N/OCC(=O)NCc2ccc3c(c2)OCO3)cc1OC | active: 31.9% |
| CCN(c1ncnc2c1cnn2-c1ccc(C)cc1)C1CCCCC1 | -9.95% |
| Cc1cc(Nc2ccc(C)c(Cl)c2)n2nc(Cc3ccccc3)nc2n1 | -18.4% |

| Compound | inhibition |
| --- | --- |
| COc1ccccc1CNS(=O)(=O)c1c(C)nc2scc(C)n2c1=O | -3.78% |
| CC1OC(O[C@H]2CC[C@]3(C)C4C=C[C@]56OC[C@@]7(CC[C@@H](C)[C@H](C)C75)[C@H](O)C[C@@]6(C)[C@]4(C)CC[C@H]3C2(C)C)C(OC2OC(CO)C(O)C(O)C2OC2OCC(O)C(O)C2O)C(O)C1O (stereo partly drawn) | active: 35.1% |
| CCC(CO)NC(=O)C(=O)Nc1c2c(nn1-c1ccc(F)cc1)CSC2 (stereo not drawn) | 3.09% |
| CC(C)(C)c1ccc(S(=O)(=O)NCc2ccc3c(c2)CCN3C(=O)c2ccccc2)cc1 | -12.1% |
| O=C(Cn1c(=O)ccc2cc(S(=O)(=O)N3CCCC3)ccc21)NCc1ccc(Cl)cc1 | 18.1% |
| COc1cc(-c2noc(-c3ccc(N4CCN(C)CC4)c([N+](=O)[O-])c3)n2)cc(OC)c1OC | 2.26% |
| O=C(c1ccc(Cl)cc1)N1CCC(c2ccncc2)CC1 | -14.2% |
| CCN(CC)S(=O)(=O)c1ccc2nc(NC(=O)c3cccnc3)sc2c1 | 1.8% |
| CCOC(=O)c1cc(S(=O)(=O)NCc2ccccc2)[nH]n1 | 6.4% |
| CC1CCCCN1C(=O)C12CCC(C)(/C(=N/O)C1)C2(C)C (stereo not drawn) | active: 34.6% |
| Cc1ccc(NC(=O)CN(C)C(=O)c2cccc(S(=O)(=O)NCc3ccccc3)c2)cc1 | active: 45.9% |
| CC1=C(C(=O)Nc2ccccc2)C(c2ccncc2)n2nc(SCc3ccccc3Cl)nc2N1 (stereo not drawn) | -13.8% |
| O=C(Cn1c(=O)n(Cc2ccco2)c(=O)c2ccccc21)Nc1ccc(Cl)cc1Cl | 0.542% |
| Cc1ccc(S(=O)(=O)Cc2ccc(C(=O)N3CCN(c4cccc(C)c4C)CC3)o2)cc1 | -22.6% |
| COc1ccc(C(=O)OCc2cc(=O)n3nc(-c4cccs4)sc3n2)cc1 | -11.9% |
| CCC(Cn1nnc2ccccc2c1=O)NC(=O)Nc1cccc(C)c1C (stereo not drawn) | -3.89% |
| O=[N+]([O-])c1cc(-c2nc(-c3ccccc3)no2)ccc1N1CCCCC1 | -12.1% |
| Cc1ccc(NC(=O)C2CCCN(c3nnc(C)c4c(C)n(-c5ccccc5)nc34)C2)c(Cl)c1 (stereo not drawn) | -12% |
| CCC(=O)N1CCc2cc(Br)cc(S(=O)(=O)CCC(=O)N3CCN(c4cccc(C(F)(F)F)c4)CC3)c21 | -27% |
| Cc1ccc(CNC(=O)Cc2c(C)c3cc4c(C)coc4cc3oc2=O)cc1 | -13.4% |
| O=C(COc1ccccc1Cl)OCc1cc(=O)n2nc(-c3cccs3)sc2n1 | 10.9% |
